Test results as given in the supplement of paper PMC4166925.
± gives the standard deviation of the averaged measurements. In all, about 33,000 sequences were measured (“E-score (dimensionless, -0.5 to 0.5)”: median about -0.046, highest 2% from about 0.36 on). Some of the results follow.

system: T1, SpTbr T-box DNA-binding domain (GST fusion); assay: PBM E-score of 8-mer (E-score (dimensionless, -0.5 to 0.5)); Tbr is Tbrain of the sea star Patiria miniata (Pm) or the sea urchin Strongylocentrotus purpuratus (Sp); higher = stronger binding preference; most listed sequences are background and not binding sites; conditions: the construct has about 5 more residues each side
T1 sequence: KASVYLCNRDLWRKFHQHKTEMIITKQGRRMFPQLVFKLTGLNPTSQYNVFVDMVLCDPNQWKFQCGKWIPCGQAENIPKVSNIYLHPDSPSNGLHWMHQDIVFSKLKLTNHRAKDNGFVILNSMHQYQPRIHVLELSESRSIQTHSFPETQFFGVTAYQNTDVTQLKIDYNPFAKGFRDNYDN
Outline: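 Universal Agilent oligonucleotide arrays, made double-stranded by primer extension, were incubated with 200 nM GST-fused Tbr T-box DNA-binding domain in PBS (pH 7.5). The protein was expressed in BL21 E. coli at 20 °C and purified by glutathione affinity chromatography. After scanning and quantification, the Universal PBM Analysis Suite assigned an enrichment E-score to each ungapped 8-mer, averaged over duplicate arrays.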

| Sequence | PBM E-score of 8-mer |
| --- | --- |
| AAAGGCGG | 0.0871 ± 0.015 |
| ACATTTAA | -0.0206 ± 0.06 |
| ATGTACGC | -0.0378 ± 0.0063 |
| GCCCGCAC | 0.0289 ± 0.04 |
| ACGATATG | 0.0283 ± 0.016 |
| GCACGGTA | -0.0476 ± 0.042 |
| CTGACTCC | -0.113 ± 0.088 |
| CTCTTAAC | -0.147 ± 0.018 |
| ACGAGAAC | 0.186 ± 0.0072 |
| TATCAAGA | -0.227 ± 0.059 |
| AACGCTTG | 0.182 ± 0.0086 |
| ACCTGATC | 0.0465 ± 0.058 |
| TGTATAAA | -0.175 ± 0.0027 |
| AAACCCTC | -0.0489 ± 0.035 |
| ACAGAACC | -0.0524 ± 0.08 |
| TACTATAA | -0.105 ± 0.12 |
| CAGCAACC | -0.109 ± 0.025 |
| AACGATGA | -0.169 ± 0.036 |
| GTTTACGA | 0.0241 ± 0.021 |
| ACCCATAT | -0.0302 ± 0.0029 |
| ACTCGGAG | 0.02 ± 0.05 |
| CAGGCGCG | 0.323 ± 0.0063 |
| CCGCTCCG | -0.278 ± 0.084 |
| CGAGAGCG | 0.167 ± 0.046 |
| AGTTCCTA | -0.0351 ± 0.048 |

| Sequence | PBM E-score of 8-mer |
| --- | --- |
| CTCCCAGA | -0.0507 ± 0.038 |
| GCCATGGC | -0.331 ± 0.018 |
| ACAGAAGC | -0.112 ± 0.011 |
| AGCACCCA | 0.15 ± 0.073 |
| ATACGAAC | -0.1649 ± 0.00096 |
| GAGGGGGA | -0.18 ± 0.058 |
| ACTGATCG | -0.033 ± 0.09 |
| GCCTGGGA | -0.203 ± 0.039 |
| AAACTACA | 0.014 ± 0.14 |
| CATCGAAC | -0.0765 ± 0.093 |
| ACGGCAGA | 0.00639 ± 0.087 |
| ATCATGTG | 0.0234 ± 0.06 |
| AACTTAGT | -0.0372 ± 0.035 |
| ATAATGCG | 0.0553 ± 0.067 |
| GGCTCCCC | -0.219 ± 0.0066 |
| CGGGATAC | 0.0581 ± 0.057 |
| AATGAGAA | -0.217 ± 0.014 |
| CCTGTACC | -0.281 ± 0.019 |
| CCGACAAC | 0.159 ± 0.048 |
| ACCCACCT | 0.119 ± 0.0025 |
| AGTCGAAT | -0.204 ± 0.031 |
| AGGTGGGC | -0.0803 ± 0.021 |
| AACCGTTC | 0.13 ± 0.033 |
| CCTGTCAC | 0.3163 ± 0.0011 |
| TATAACAA | 0.105 ± 0.024 |

| Sequence | PBM E-score of 8-mer |
| --- | --- |
| ATTTCGTC | -0.0211 ± 0.029 |
| CCCGAGGG | -0.341 ± 0.026 |
| GTGAAGTA | 0.2369 ± 0.00032 |
| ATTGCACA | 0.121 ± 0.053 |
| CGCACGAC | 0.133 ± 0.02 |
| CGGGGAGC | -0.128 ± 0.016 |
| GAGAAGTA | -0.0397 ± 0.029 |
| CGTCACAG | 0.232 ± 0.0032 |
| ACGCACAC | 0.267 ± 0.036 |
| AGTGTGAT | 0.4721 ± 0.0012 |
| ATAAGCGA | -0.0998 ± 0.04 |
| ATGCCCAA | -0.122 ± 0.1 |
| ACGCGATC | 0.188 ± 0.038 |
| CGAGGACA | 0.0382 ± 0.045 |
| AGTCTGAT | -0.329 ± 0.021 |
| GAGACACC | 0.304 ± 0.0089 |
| GGCTTCAC | 0.142 ± 0.079 |
| GCCGATGA | -0.124 ± 0.047 |
| CATATAGA | -0.308 ± 0.047 |
| ATCTGGTG | 0.0206 ± 0.029 |
| CTAAACGA | -0.0951 ± 0.053 |
| CTTCTCGA | 0.0756 ± 0.058 |
| AAGTGTGT | 0.331 ± 0.0059 |
| GGAAAGGA | -0.245 ± 0.043 |
| GACCTAAC | 0.00654 ± 0.0056 |

| Sequence | PBM E-score of 8-mer |
| --- | --- |
| AACGCCGG | -0.0149 ± 0.0048 |
| CGTCTATA | -0.0259 ± 0.048 |
| ACAGTAGT | 0.134 ± 0.026 |
| GCGTAGAA | -0.19 ± 0.041 |
| CACGACCC | -0.0721 ± 0.023 |
| ACTGTGTG | 0.259 ± 0.0026 |
| AACCTAGT | -0.16 ± 0.015 |
| ATTTTTAC | -0.0791 ± 0.0015 |
| ATGTTGTA | -0.0316 ± 0.062 |
| AGCTGCTG | -0.04 ± 0.048 |
| CCGTCAGA | -0.155 ± 0.046 |
| CCGCCGGC | -0.0836 ± 0.039 |
| CTTTCCCC | -0.0358 ± 0.012 |
| ACTGAAAC | -0.0367 ± 0.048 |
| ACACAAAA | 0.146 ± 0.047 |
| AATGCGCG | 0.0921 ± 0.011 |
| GTGGTAGA | 0.0762 ± 0.0054 |
| CTCGCGCA | 0.248 ± 0.021 |
| ACACGCCT | 0.283 ± 0.016 |
| ATCTGCTA | 0.0331 ± 0.0079 |
| ACGTTGAC | 0.325 ± 0.057 |
| CAAGGCGG | -0.0373 ± 0.013 |
| AGAAGCTA | -0.0972 ± 0.041 |
| ATACCCAA | -0.32 ± 0.07 |
| AATGGCAC | 0.209 ± 0.032 |

| Sequence | PBM E-score of 8-mer |
| --- | --- |
| GTCCCCAA | 0.0238 ± 0.011 |
| GCAGGTAA | -0.0374 ± 0.063 |
| CCGTCGAC | 0.112 ± 0.032 |
| GCTGATAC | -0.0434 ± 0.0089 |
| CCCCAGGA | -0.118 ± 0.0089 |
| AATGACCG | -0.0301 ± 0.079 |
| ACCGGTGG | -0.0227 ± 0.038 |
| CCACAGAC | -0.083 ± 0.056 |
| GGACTCAC | -0.124 ± 0.0017 |
| CGACCCCC | -0.11 ± 0.0058 |
| GAGGTCAC | 0.205 ± 0.0031 |
| ACGAAAGC | -0.0903 ± 0.043 |
| ATGAACCG | 0.0284 ± 0.03 |
| ACCTTAAG | 0.109 ± 0.0011 |
| CCCCGAAA | -0.122 ± 0.064 |
| AATCGTCG | 0.0682 ± 0.095 |
| TAATCACA | 0.195 ± 0.056 |
| CTAGCGTC | -0.00139 ± 0.029 |
| ACTGTATA | -0.0709 ± 0.035 |
| AGTGATCG | 0.155 ± 0.00032 |
| ATGAACGG | -0.162 ± 0.022 |
| CAAAGAAC | -0.00702 ± 0.007 |
| ACCTCAAC | -0.0458 ± 0.091 |
| CCATCAGA | -0.152 ± 0.041 |
| GTATAGAA | -0.051 ± 0.037 |

| Sequence | PBM E-score of 8-mer |
| --- | --- |
| AGGATCAC | -0.0644 ± 0.0047 |
| CCCTCAAG | 0.0833 ± 0.0098 |
| CTGACGTA | 0.00893 ± 0.00035 |
| CTCGGTGA | 0.0792 ± 0.037 |
| GAGAGATA | -0.094725 ± 7.8e-05 |
| CCTACAAG | -0.162 ± 0.023 |
| ATGATAGA | -0.242 ± 0.0043 |
| CGACTCTA | 0.0596 ± 0.075 |
| CCCTGACC | -0.2 ± 0.05 |
| CACCACAG | 0.0791 ± 0.052 |
| ACCAAACA | 0.177 ± 0.0058 |
| ACAGCCCC | -0.091 ± 0.047 |
| GCGCAGAC | 0.197 ± 0.026 |
| CTCCCGAC | 0.0714 ± 0.0088 |
| AAGGCTTC | -0.242 ± 0.0041 |
| ACGCGATG | 0.125 ± 0.0073 |
| CCAGAAGA | -0.196 ± 0.043 |
| CCTTTCAA | -0.311 ± 0.027 |
| CGGTTCAG | -0.07241 ± 0.00023 |
| CAGAAATG | -0.202 ± 0.012 |
| GGGTGAGA | 0.424 ± 0.0073 |
| AACGAGCG | 0.0213 ± 0.0072 |
| AAGTCGCG | 0.234 ± 0.0035 |
| ATTCTGCG | -0.00673 ± 0.004 |
| AATCTGGC | -0.144 ± 0.055 |

| Sequence | PBM E-score of 8-mer |
| --- | --- |
| GATGCTCA | 0.0265 ± 0.016 |
| GGACAGTA | -0.134 ± 0.037 |
| CACCTGAA | 0.29 ± 0.0089 |
| CTGCTTTA | 0.0222 ± 0.037 |
| TCGGTTCA | -0.122 ± 0.0079 |
| CACCTATC | 0.358 ± 0.012 |
| CTACCGGA | -0.152 ± 0.039 |
| TAAAATAA | -0.0967 ± 0.032 |
| CGGACTTC | -0.0705 ± 0.0044 |
| GCTCGACC | -0.0869 ± 0.032 |
| ACAGTAAT | 0.228 ± 0.03 |
| CTGGTGCC | 0.141 ± 0.076 |
| ATACCATA | -0.0336 ± 0.003 |
| CGTTGAGC | -0.16 ± 0.043 |
| ACGCCCGT | 0.0933 ± 0.011 |
| TGGACGAA | -0.00239 ± 0.0088 |
| AAATAACT | -0.101 ± 0.03 |
| CATTAAGG | -0.146 ± 0.013 |
| CGACACCG | 0.257 ± 0.037 |
| AGCTATGG | -0.223 ± 0.035 |
| ACGGCGAA | 0.000705 ± 0.055 |
| ATCTGTAC | -0.0193 ± 0.045 |
